{"source": "PubChem BioAssay AID488969", "about": "(Vanderbilt High Throughput Screening Facility, 2010)", "note": "In all, about 110,000 compounds were measured (“z-score”: median about -0.1, highest 2% from about 2 on). The list shows a part of the results.", "data": [{"target": "Metabotropic glutamate receptor 8 (Rattus norvegicus) (UniProt P70579)", "sequence (P70579 whole entry, looked up)": "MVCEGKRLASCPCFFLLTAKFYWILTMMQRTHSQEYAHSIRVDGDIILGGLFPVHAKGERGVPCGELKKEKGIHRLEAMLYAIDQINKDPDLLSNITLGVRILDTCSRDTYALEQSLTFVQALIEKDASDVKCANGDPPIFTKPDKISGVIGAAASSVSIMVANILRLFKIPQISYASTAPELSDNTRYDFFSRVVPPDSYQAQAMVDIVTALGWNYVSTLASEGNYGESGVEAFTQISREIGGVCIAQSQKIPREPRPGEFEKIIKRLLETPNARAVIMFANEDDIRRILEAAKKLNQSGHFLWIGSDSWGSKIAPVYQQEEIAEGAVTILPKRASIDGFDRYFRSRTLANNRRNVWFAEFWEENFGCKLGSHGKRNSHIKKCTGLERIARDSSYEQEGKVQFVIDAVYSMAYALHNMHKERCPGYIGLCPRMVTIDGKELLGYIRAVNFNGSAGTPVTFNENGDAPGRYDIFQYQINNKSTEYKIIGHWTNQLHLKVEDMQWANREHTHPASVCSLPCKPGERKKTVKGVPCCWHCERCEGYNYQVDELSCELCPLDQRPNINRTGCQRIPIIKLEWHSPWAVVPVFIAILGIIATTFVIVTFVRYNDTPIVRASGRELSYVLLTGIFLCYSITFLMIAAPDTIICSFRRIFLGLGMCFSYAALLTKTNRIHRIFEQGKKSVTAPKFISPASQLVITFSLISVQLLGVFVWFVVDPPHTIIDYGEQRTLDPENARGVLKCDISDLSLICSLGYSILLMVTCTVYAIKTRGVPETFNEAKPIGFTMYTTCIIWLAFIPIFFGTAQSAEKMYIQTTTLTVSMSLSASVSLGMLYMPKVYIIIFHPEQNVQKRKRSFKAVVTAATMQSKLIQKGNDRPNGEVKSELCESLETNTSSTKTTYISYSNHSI", "experiment": "rat mGluR8 modulators via GIRK flux, primary screen, cell-based, thallium flux, HTS (AID 488969)", "conditions": "HEK293 rat mGluR8, GIRK (G protein-gated inwardly rectifying potassium channel) thallium flux, FluoZin2; at 10 µM; stronger effect = higher value; submaximal glutamate (EC20) added with thallium", "values": [{"smiles": "Cc1ccc(NC2=NCC(=O)N2Cc2ccccc2)c(C)c1", "z-score": -0.66}, {"smiles": "CCOC(=O)c1cnc(-n2nc(C)cc2C)nc1NC1CCCCC1", "z-score": -0.716}, {"smiles": "O=C(Cn1c(NCCO)nc2ccccc21)NCCc1ccc(F)cc1", "z-score": 0.252}, {"smiles": "COC(=O)c1nn(-c2ccccc2)c(Sc2ccc(OC)cc2)c1/C=N/O", "z-score": -0.214}, {"smiles": "CC(C)(C)C(=O)CN1CCN(C2c3ccccc3-c3ccccc32)CC1", "z-score": -0.125}, {"smiles": "Cc1ccc(NC(=O)CSc2nc(O)cc(=O)n2C)cc1", "z-score": -0.222}, {"smiles": "COc1cccc(NC(=O)N2CCN(c3cccc(C)c3)C(C)C2)c1", "note": "(configuration not stated)", "z-score": 0.0155}, {"smiles": "C/C(CC(=O)N1CCN(C=O)CC1)=N\\NC(=O)c1cc2ccccc2cc1O", "z-score": -0.15}, {"smiles": "COc1cc(NC(=O)c2ccc(OC)c([N+](=O)[O-])c2)ccc1NC(=O)c1cccs1", "z-score": -0.21}, {"smiles": "CCOc1ccc(C(=O)NC(Cc2ccccc2)C(=O)OC)cc1", "note": "(configuration not stated)", "z-score": -0.262}, {"smiles": "O=C(Nc1ccc(N=Nc2ccccc2)cc1)c1ccc(Cl)cc1Cl", "z-score": -0.0425}, {"smiles": "Cc1sc(-n2c(C)ccc2C)c(C#N)c1C", "z-score": 0.418}, {"smiles": "COc1cccc(NC(=S)NCc2cccnc2)c1", "z-score": -0.158}, {"smiles": "Cc1ccc(C(=O)NCCc2nnc(SCC(=O)Nc3nc(-c4ccccc4)cs3)n2C)cc1", "z-score": 0.153}, {"smiles": "COc1ccc(CCNS(=O)(=O)c2ccc3c(c2)CC(C)N3C(C)=O)cc1OC", "note": "(configuration not stated)", "z-score": -0.0843}, {"smiles": "Cc1cc(Oc2ccc(=O)n(C)n2)nc(Oc2ccc(=O)[nH]n2)n1", "z-score": 0.295}, {"smiles": "CC1=C(C(=O)N2CCCCC2)C(c2cccs2)NC(=O)N1", "note": "(configuration not stated)", "z-score": -0.718}, {"smiles": "CCN(CC)S(=O)(=O)c1cc(Br)c(C)cc1OC", "z-score": -0.159}, {"smiles": "O=C(CN1C(=O)NC2(CCCCCC2)C1=O)NCc1ccco1", "z-score": -0.253}, {"smiles": "NC(=O)C1CCCN(C(=O)c2ccc(Cl)cc2)C1", "note": "(configuration not stated)", "z-score": 0.0443}, {"smiles": "O=[N+]([O-])c1ccc(NC(=S)NCCc2ccc(Cl)cc2)cc1", "z-score": 0.129}, {"smiles": "CCN1CCn2c1nc(N1CCOCC1)nc2=O", "z-score": -0.847}, {"smiles": "Cc1nc(N2CCC(C)CC2)c2oc3ccccc3c2n1", "z-score": -0.227}, {"smiles": "CC(C)OC(=O)CC(=O)CSc1nc2c(c(-c3cccs3)c1C#N)CCC2", "z-score": -0.238}, {"smiles": "CC1(C)c2ssc(=S)c2-c2ccccc2N1C(=O)c1ccco1", "z-score": -0.0473}, {"smiles": "Cc1cc(C(=O)N/N=C/c2ccccc2Br)no1", "z-score": 0.19}, {"smiles": "CCC(=O)NC(=S)Nc1ccccc1C(F)(F)F", "z-score": 0.0622}, {"smiles": "CCn1nnnc1SCC(=O)c1ccc(C)cc1", "z-score": 0.138}, {"smiles": "COc1ccc(CCNC(=O)NC(C(F)(F)F)C(F)(F)F)cc1OC", "z-score": -0.927}, {"smiles": "C1CCc2c(nc3nnnn3c2NC2CCCC2)C1", "z-score": -0.0732}, {"smiles": "COc1cccc(CN2C(=O)CCC2(C)C(=O)NC2CCCCCC2)c1", "note": "(configuration not stated)", "z-score": 1.5}, {"smiles": "CC(NC(=O)CSc1nc2ccccc2c(=O)n1CCCO)c1ccccc1", "note": "(configuration not stated)", "z-score": 1.01}]}]}
